Measured values reported in PubChem BioAssay AID686970 (National Center for Advancing Translational Sciences (NCATS), 2013).
About 6,000 (1.7%) of roughly 360,000 compounds were called active. This list was built around the results that the source calls inconclusive (neither active nor inactive); the mix of calls is not that of the screen. Calls come from the whole dose curve; as a rule, active = well fitted cell-killing curve with a large enough effect; inconclusive = small, poorly fitted or top-dose-only effect, or effect the other way; inactive = flat fitted curve, though single readings scatter. No potency is given beside an inconclusive call; the fits are too rough.

Experiment: qHTS for induction of synthetic lethality in tumor cells producing 2HG: qHTS for the HT-1080-NT fibrosarcoma cell line;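 note: NT is the 2HG producing partner of a matched IDH1 knockdown line; nearly all actives have a fitted effect of over 55% in size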;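 for activity, negative = less viability: 0% = DMSO-treated cells and -100% = media-only wells without cells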
Details: HT-1080-NT fibrosarcoma viability, CellTiter-Glo ATP luminescence, 48 h; activity, negative = less viability: at 46.1 µM (top of the series) unless noted
Procedure, shortened: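 Toxicity toward the 2HG-producing NT line was scored as %Activity, normalised to DMSO and no-cell wells, from CellTiter-Glo luminescence after 48 hours' treatment.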
Potency is the fitted concentration of half-maximal effect; tags give direction and shape of the fitted curve.

SMILES	Potency	activity, negative = less viability
COc1ccc(CCC2=NCCN2C(CC(C)C)c2nc3ccccc3[nH]2)cc1 (stereo not given)	inconclusive [cytotoxic, single point]	–
Cc1c(Br)cccc1NC(=O)C1(C)CCN1Cc1ccccc1OC(F)F (stereo not given)	inconclusive [cytotoxic, single point]	–
C=C(C)COc1ccc(-c2n[nH]c(C)c2-c2ccc(OC)c(OC)c2)c(O)c1	active: 4.11 µM	–
O=C(NCCOc1ccc(Cl)cc1)C1CC(=O)N(c2ccc(F)cc2)C1 (stereo not given)	inconclusive [cytotoxic, full curve]	–
COc1cccc(-c2nc(CS(=O)CC(=O)NCCc3ccccc3)c(C)o2)c1 (stereo not given)	inactive	–
CC1(C)Cc2nc(NCCN3CCOCC3)c(C#N)cc2CO1	inconclusive [rising, single point]	–
COc1ccc(CCNC(=O)C23CCC(C)(C(=O)O2)C3(C)C)cc1OC (stereo not given)	inconclusive [rising, single point]	–
CC(=O)O[C@@H]1[C@@H](O)[C@@H](O)[C@H](Oc2c(-c3ccc(O)cc3)oc3c(CC=C(C)C)c(O)cc(O)c3c2=O)O[C@H]1C	inconclusive [cytotoxic, single point]	–
O=c1cc2c(nn1Cc1c(Cl)cccc1Cl)-c1ccccc1CC2	inconclusive [cytotoxic, single point]	–
Cn1c(=O)cc(SCC(=O)NCc2ccc(F)cc2)c2ccccc21	inactive	–
CC1(C)COCN1S(=O)(=O)c1ccc(C(=O)Nc2nnc(-c3ccc(Cl)s3)o2)cc1	inconclusive [cytotoxic, full curve]	–
COc1cc(OC)c(CN2CCC(CO)(CCOc3ccccc3)CC2)c(OC)c1	inconclusive [cytotoxic, partial curve]	–
OC(COc1ccc(Br)cc1)CN1CCC(Cc2ccccc2)CC1 (stereo not given)	inconclusive [cytotoxic, single point]	–
CCOC(=O)C1CCCN(C(=O)CCCn2nnnc2CN2CCOCC2)C1 (stereo not given)	inactive	–
CCOC(=O)c1ccc(Nc2ncnc3nc[nH]c23)cc1	inconclusive [cytotoxic, single point]	–
COc1ccccc1N1CCN(C(=O)c2ccc3nc[nH]c3c2)CC1	inactive	–
CC1CCC(C(C)C)C(OC(=O)Cn2c(-c3ccc(F)cc3)[n+](C)c3ccccc32)C1 (stereo not given)	active: 18.4 µM	–
COC(=O)c1cn(NC(=O)c2ccccc2[N+](=O)[O-])c(=O)c2ccccc12	inactive	–
COc1ccc2c(c1)[C@H]1[C@H](CO2)[C@H](c2ccccc2)[C@]2(C)C(=O)N(Cc3ccc(C)cc3)CC(=O)N12	inconclusive [cytotoxic, single point]	–
CC(C)Oc1ccc(C(=O)Nc2ccc(Cl)c(S(=O)(=O)Nc3ccc(Cl)cc3)c2)cc1	inconclusive [cytotoxic, single point]	–
O=c1oc2ccccc2c(Nc2ccc(Cl)cc2)c1[N+](=O)[O-]	inconclusive [cytotoxic, single point]	–
CC(C)CCCCCCCCCCCCC(=O)NCC(=O)NC1C(O)C(O)C(Nc2ncnc3nc[nH]c23)OC1C(O)CO (stereo not given)	–	inconclusive: -31.7% [cytotoxic]
CCN1/C(=C\c2ccc3cc(C)ccc3[n+]2CC)Sc2cc(C)c(C)cc21	active: 16.4 µM	–
O=C1Nc2ccccc2C1(c1ccccc1)c1ccccc1	inconclusive [cytotoxic, single point]	–

SMILES	Potency	activity, negative = less viability
COc1ccc(-n2cc(-c3ccc(C)cc3)[n+]3c2SCC3)cc1	active: 2.91 µM	–
Cc1cccc(CS(=O)(=O)c2ncc(Cl)c(C(=O)NCc3ccccc3)n2)c1	active: 25.9 µM	–
CCCC(=O)N1CCN(c2ccc(NC(=O)c3ccc([N+](=O)[O-])o3)cc2)CC1	active: 13 µM	–
CC(=O)c1ccc(S(=O)(=O)N(C)CCCC(=O)N2CCN(c3ncccn3)CC2)cc1	inactive	–
O=C(Nc1nc2c(s1)CCCC2)c1ccc(Br)s1	inconclusive [cytotoxic, single point]	–
OC(c1ccc(F)cc1)c1nc(-c2cccc(C(F)(F)F)c2)cs1 (stereo not given)	inconclusive [cytotoxic, single point]	–
CC(C)N=C(NS(=O)(=O)c1ccccc1)C(Cl)(Cl)Cl	active: 7.31 µM	–
Cc1c(CCOC(=O)C23CC4CC(CC(C)(C4)C2)C3)sc[n+]1Cc1ccccc1	inconclusive [cytotoxic, single point]	–
COc1ccc(N(Cc2cc3cccc(C)c3[nH]c2=O)S(=O)(=O)c2ccc(OC)cc2)cc1	inactive	–
CCC/C=C/c1ccc(CN2C(CC(C)C)C(=O)N(Cc3cn(Cc4ccco4)nn3)CCS2(=O)=O)cc1 (stereo not given)	inconclusive [cytotoxic, single point]	–
Cc1ccc2nc(Cl)c(/C=N/NC(=O)c3ccccc3O)cc2c1	inconclusive [cytotoxic, single point]	–
COc1ccc(C2CC(c3ccc(Cl)cc3)=NN2c2ccc(S(N)(=O)=O)cc2)cc1 (stereo not given)	inconclusive [cytotoxic, single point]	–
O=C(NCc1ccccn1)c1ccc(Cl)c(S(=O)(=O)NCc2ccccc2)c1	inactive	–
CC1C(=O)C(C)C(c2cc(Br)ccc2O)NC1c1cc(Br)ccc1O (stereo not given)	active: 13 µM	–
CC(C)(C)C1C/C(=C/c2ccccn2)C(=O)/C(=C/c2ccccn2)C1 (stereo not given)	active: 0.731 µM	–
Clc1cccc(Cl)c1CON/C=N/c1ncnc2sccc12	–	inconclusive: -30.4% [cytotoxic]
O=C(CSc1nc(C(F)(F)F)cc(=O)[nH]1)N1CCCC1	inactive	–
Cc1ccc(OCCN2CCC2(C)C(=O)NCc2cccc3ccccc23)cc1 (stereo not given)	inconclusive [cytotoxic, single point]	–
O=C(NCc1cccc(C(F)(F)F)c1)c1ccc2sc([C@H]3C[C@H](O)[C@@H](CO)O3)nc2c1	inactive	–
O=C(Nc1nc(-c2ccc(F)cc2)cs1)C1CCN(C(=O)c2ccc(F)cc2)CC1	inconclusive [cytotoxic, single point]	–
Cc1ccc(N=N/C(=C\O)C(=O)c2ccc(Cl)cc2)cc1	inconclusive [cytotoxic, partial curve]	–
COC(=O)[C@]1(Cc2ccccc2)N[C@H](c2ccc(-c3ccc(Cl)c(Cl)c3)cc2)[C@@H]2C(=O)N(C)C(=O)[C@@H]21	inactive	–
CCc1cccc(N=c2c([N+](=O)[O-])nn(-c3ccc(Cl)cc3)n2O)c1	inactive	–
CC(=O)c1ccc(-c2cnc3c(NC=O)cc(-c4ccc(C(=O)NC5CC5)cc4)cn23)cc1	active: 14.6 µM	–

SMILES	Potency	activity, negative = less viability
CC1(C(=O)Nc2ccc3c(c2)OCO3)Cc2c(-c3cccc(C(F)(F)F)c3)ccnc2O1 (stereo not given)	inconclusive [cytotoxic, partial curve, poor fit]	–
Cn1c(=O)c2c(nc(N/N=C/c3cccs3)n2C)n(C)c1=O	–	inconclusive: 33.4%
CCOC(=O)c1cc(-c2csc(COc3ccc(Cl)cc3)n2)on1	–	inconclusive: -0.598% [cytotoxic]
N#C/C(=C\c1ccc(F)c(Cl)c1)S(=O)(=O)c1ccccn1	inactive	–
CC(=O)c1ccc(NC(=O)CCc2nnc3ccc(N4CCCC4)nn23)cc1	inactive	–
Cc1ccccc1NC(=O)CSc1nc(N)c2c3c(sc2n1)CSC(C)(C)C3	inconclusive [cytotoxic, single point]	–
COc1ccc(N2CCc3c(C)nc4c(OC)cc(OC)cc4c32)c(OC)c1	inconclusive [cytotoxic, single point]	–
O=S(=O)(c1ccc(Cl)cc1)N1CCN(Cc2ccncc2)CC1	inactive	–
Oc1ccc(Nc2nc(-c3ccccc3)nc3ccccc23)cc1	inconclusive [cytotoxic, partial curve]	–
CCOc1cc(C(=S)N2CCOCC2)ccc1OS(=O)(=O)c1ccccc1[N+](=O)[O-]	inactive	–
COc1ccccc1-n1cnc2cc(NCc3ccccc3O)ccc21	inconclusive [cytotoxic, single point]	–
O=C(Nc1cccc(O)c1)C(Cc1ccccc1)N1C(=O)c2cccc3cccc(c23)C1=O (stereo not given)	inactive	–
C[C@@]12CCC=C[C@H]1[C@H](c1ccc(/C=C/c3ccccc3)cc1F)N(Cc1ccccc1)C2=O	inconclusive [cytotoxic, partial curve, poor fit]	–
O=C(c1sc2ccccc2c1Cl)N1CCN(CCc2ccccn2)CC1	inactive	–
c1ccc(-c2cc(NCCN3CCCCC3)c3ccccc3n2)cc1	active: 20.6 µM	–
O=C(Nc1ccncc1)c1cccc(S(=O)(=O)N2CCc3ccccc32)c1	inactive	–
CC1=C([N+](=O)[O-])C(c2ccccc2)C2=C(N1)c1ccccc1C2=O (stereo not given)	inconclusive [cytotoxic, full curve]	–
COc1ccccc1Cc1c(-c2ccccc2)nc2c(C)cc(Br)cn12	inconclusive [cytotoxic, single point]	–
CC(C)c1ccc2nc3sc(C(=O)N4CCc5ccccc5C4)c(N)c3cc2c1	inconclusive [cytotoxic, single point]	–
O=C(Nc1ccc(CN2CCOCC2)cc1)c1ccc(-c2ccc(Cl)cc2Cl)o1	active: 14.6 µM	–
O=C(CNCCc1ccc(Cl)cc1)Nc1ccc(C(=O)N2CCCCC2)cc1	inconclusive [cytotoxic, single point]	–
CCCCN(CCCC)CC(O)CN(c1cc([N+](=O)[O-])ccc1OC)S(=O)(=O)c1ccccc1 (stereo not given)	inconclusive [cytotoxic, partial curve]	–
